# The other results are listed elsewhere or left out.
# T1: UNK ZnF1-6 (called full-length) (human, UniProt Q9C0B0 30-357)
# T1 sequence: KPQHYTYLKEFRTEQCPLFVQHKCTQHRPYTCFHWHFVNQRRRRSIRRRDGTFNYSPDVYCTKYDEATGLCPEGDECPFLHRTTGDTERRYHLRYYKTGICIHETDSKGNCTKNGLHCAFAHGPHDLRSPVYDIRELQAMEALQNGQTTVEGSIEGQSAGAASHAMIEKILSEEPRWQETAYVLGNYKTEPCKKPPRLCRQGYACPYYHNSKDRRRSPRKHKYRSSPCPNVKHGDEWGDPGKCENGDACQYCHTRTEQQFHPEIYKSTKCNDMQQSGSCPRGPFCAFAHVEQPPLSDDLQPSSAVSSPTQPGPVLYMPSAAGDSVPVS
# B1: chr19:45795712:45795987:-|three_prime_utr|ENSG00000104941|control|control|control (ssRNA)
# RNA: GGGAGUUCUACAGUCCGACGAUCGAGGAGGAGGGCGAGGAGGAGGAGGAGGGCGAGGAGACAGAUGACUGAGGCCCACCCUCUAGCCACUUUCCCCAAGCAGGUAGAUAGCAAAUUUCCCCUUAGAGGUAGUUAGCAUGGAUUCAACAGAGGAUUGAGCAUCA
# B2: chr6:42224930:42228669:-|three_prime_utr|ENSG00000124496|control|control|control (ssRNA)
# RNA: GGGAGUUCUACAGUCCGACGAUCUGAUCAAGAUUCAGUCUUGCUUCAGGGUGACGCAGAACUAUAAAGCCCUGUGUGUCACUUAGAGACAGUGAAAACCCACGGCCUCCAUCUUCAUUAAUCAGGAAACCUGGACUGCCUGCUCAACAGAGGAUUGAGCAUCA
# B3: chr1:45640296:45640398:-|CDS|ENSG00000159592|unk|FALSE|unique (ssRNA)
# RNA: GGGAGUUCUACAGUCCGACGAUCCUCUCCACUCUUGUACUUCACAGAAAACCCGCCUAGUGCCAAGCAACCCUCCAAGAUGCUAGUUAUCAAAAAAGUUUCCAAAGAGGAUCCUGCUGCUGCCUUCUCUGCUGCAUUCACCUCCAACAGAGGAUUGAGCAUCA
# B4: ENSG00000100994:stop:overlap|stop_codon|ENSG00000100994|stop_codon|NA|stop_codon (ssRNA)
# RNA: GGGAGUUCUACAGUCCGACGAUCAGAUCUGGGGUGUGGAGCCCUCCGACCUGCAGAUCCCGCCCCCCAACAUCCCCCGGGACUAGGCACACCCUGCCUUGGCGGGACCAGCGGGCAUUUGUUUUCUUGCUGACUUUGCACCUCCAACAGAGGAUUGAGCAUCA
# B5: chr7:80742902:80743013:-|3pUTR|ENSG00000075223|msi1_unk|FALSE|overlapping (ssRNA)
# RNA: GGGAGUUCUACAGUCCGACGAUCUCAGAGUCACAGUUCCCUUUAUUUCACAUAAGCCCAAACUGAUAGACAGUAACGGUGUUUAGUUUUAUACUAUAUUUGUGCUAUUUAAUUCUUUCUAUUUUCACAAUUAUUAAAUUGUGUCAACAGAGGAUUGAGCAUCA
# B6: chr12:109450965:109451066:-|3pUTR|ENSG00000110906|msi1|total|mutant (ssRNA)
# RNA: GGGAGUUCUACAGUCCGACGAUCGCCCGGGCACAAUCCCCACUGCUUUGCCCGACGUGCUUUCUGCCAUGUGGCUUUGGGCCCCGAGCUUGUUGAUAAUUGCAGCUUGUGGCAGUGGAAAUAUGGCUGAAUGAGCGUCUAAAUCAACAGAGGAUUGAGCAUCA
# B7: chr10:100209595:100209696:-|CDS|ENSG00000213341|unk|FALSE|unique (ssRNA)
# RNA: GGGAGUUCUACAGUCCGACGAUCACUUCUUUCAGAGACAGGAAUUUCUCUGGAUCCUCGGAAACCAGCCUCUCAAUGUGUUCUAGAUGGAGUUGUAAGAAAAUUAAUUAUAAUAUCCCUAGAGUAUGUGAAAUCUAGAGGGAUCAACAGAGGAUUGAGCAUCA
# B8: chr3:44647099:44647200:+|3pUTR|ENSG00000186448|msi1|FALSE|unique (ssRNA)
# RNA: GGGAGUUCUACAGUCCGACGAUCAUUUGUAUGUAAACUACAUAAAGAACUUUCCAAAUUUAACAGUAAUAAGUAAAUACAAUUAGAAAAUAAGCAAAAGACAGACAUUUCACUGAAGUAUAGAUAGCAAAUAAGCAAAUGAAACAACAGAGGAUUGAGCAUCA
# B9: chr19:53069209:53069329:-|CDS|ENSG00000170949|unk|total|mutant (ssRNA)
# RNA: GGGAGUUCUACAGUCCGACGAUCUGGAGAGAAACCUUACAAGUGCAAUGAGUGCGGCAAAGCCUUCCGUGUUCGUUCAAGCCCCGCAAUCCAUCAGACAAUCCACACUGGAGAAAAACCUUACAAAUGUAAUGAAUGUGGCAACAACAGAGGAUUGAGCAUCA
# B10: chr2:15946816:15946917:+|3pUTR|ENSG00000134323|unk|FALSE|unique (ssRNA)
# RNA: GGGAGUUCUACAGUCCGACGAUCUAUAUGCCUUUUUCCUAGCCUGUUUCUUCCUGUUAAUGUAUUUGUUCAUGUUUGGUGCAUAGAACUGGGUAAAUGCAAAGUUCUGUGUUUAAUUUCUUCAAAAUGUAUAUAUUUAGUGCUCAACAGAGGAUUGAGCAUCA
# B11: chr7:152122106:152122213:+|3pUTR|ENSG00000178234|unk|FALSE|unique (ssRNA)
# RNA: GGGAGUUCUACAGUCCGACGAUCAGUGGUUUUUAUCUGAUCAGGAACUUGUCAUGAUUUCCUUUCUUAGACUUCAUAGGAGAUAGUGCUUUAAAAAAAAAAAAAACUUCUAUUAUUUGUUUAGUAUGUUGUAAGUAGAUCAUUCAACAGAGGAUUGAGCAUCA
# B12: chr19:48382969:48383148:-|3pUTR|ENSG00000105438|msi1_unk|FALSE|overlapping (ssRNA)
# RNA: GGGAGUUCUACAGUCCGACGAUCACUUGGGCUGUUUGUAGUUUUUUGCCUUUUAGACAAGAAAAAAAAAUCUUUCCACUCUUUAGUUUUUGAUUCUGAUGACUCGUUUUUCUUCUACUCUGUGGCCCCAAUUUUUAUAAAGUGCAACAGAGGAUUGAGCAUCA
# B13: chr7:4859899:4861810:-|CDS|ENSG00000218823|control|control|control (ssRNA)
# RNA: GGGAGUUCUACAGUCCGACGAUCUCUGUGCCUUCAUCUACUAGCACUAUGAAGACAGGCCCAUUGAUUAGCAGUUCUCAGGGUAGAAACAGUCCUGCCUUGGCUGUAAUGACAGCAUCUGUGGCUAACAUACAGGCUACUGAACAACAGAGGAUUGAGCAUCA
# B14: chr7:20410151:20410448:+|3pUTR|ENSG00000105855|msi1|FALSE|unique (ssRNA)
# RNA: GGGAGUUCUACAGUCCGACGAUCACUAGUGUCGUUGUAGCACUUUACUGUAAUAUAUAACUUAUUUAGAUCAGCAUAGAAUGUAGAUCCUCUGAAGAGCACUGAUUACACUUUACAGGUACCUGUUAUCCCUACGCUUCCCAGCAACAGAGGAUUGAGCAUCA
# Biological target: T1, UNK ZnF1-6 (called full-length)
# Experiment: nsRBNS (natural sequence RNA bind-n-seq); RBNS binding buffer (assumed for nsRBNS): 25 mM Tris pH 7.5, 150 mM KCl, 3 mM MgCl2, 0.01% Triton X-100, 500 ug/ml BSA, 20 U/ml SUPERase-In, 4 C; UNK is unkempt and MSI1 is Musashi-1; names of the RNAs are library labels; protein concentration not given here; high values mean tight binding
row,Binder,binding signal [enrichment R]
1,B1,3.07
2,B2,0.447
3,B3,0.897
4,B4,0.625
5,B5,2.27
6,B6,0.739
7,B7,0.651
8,B8,162
9,B9,0.549
10,B10,1.93
11,B11,35
12,B12,5.21
13,B13,0.488
14,B14,2.59
